Out of some 310,000 compounds screened, about 14,000 (4.5%) showed an effect of 50% or more. The effect is printed as a negative number. This is one part of the list.
Molecular target: human ether-à-go-go-related gene (hERG) potassium channel (human, UniProt Q12809)
Assay: primary screen, population patch clamp on CHO cells stably expressing hERG
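Also: peak tail current of the secondary pulse compared with the same well before compound.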

Chain of human ether-à-go-go-related gene (hERG) potassium channel (Q12809 whole entry, looked up): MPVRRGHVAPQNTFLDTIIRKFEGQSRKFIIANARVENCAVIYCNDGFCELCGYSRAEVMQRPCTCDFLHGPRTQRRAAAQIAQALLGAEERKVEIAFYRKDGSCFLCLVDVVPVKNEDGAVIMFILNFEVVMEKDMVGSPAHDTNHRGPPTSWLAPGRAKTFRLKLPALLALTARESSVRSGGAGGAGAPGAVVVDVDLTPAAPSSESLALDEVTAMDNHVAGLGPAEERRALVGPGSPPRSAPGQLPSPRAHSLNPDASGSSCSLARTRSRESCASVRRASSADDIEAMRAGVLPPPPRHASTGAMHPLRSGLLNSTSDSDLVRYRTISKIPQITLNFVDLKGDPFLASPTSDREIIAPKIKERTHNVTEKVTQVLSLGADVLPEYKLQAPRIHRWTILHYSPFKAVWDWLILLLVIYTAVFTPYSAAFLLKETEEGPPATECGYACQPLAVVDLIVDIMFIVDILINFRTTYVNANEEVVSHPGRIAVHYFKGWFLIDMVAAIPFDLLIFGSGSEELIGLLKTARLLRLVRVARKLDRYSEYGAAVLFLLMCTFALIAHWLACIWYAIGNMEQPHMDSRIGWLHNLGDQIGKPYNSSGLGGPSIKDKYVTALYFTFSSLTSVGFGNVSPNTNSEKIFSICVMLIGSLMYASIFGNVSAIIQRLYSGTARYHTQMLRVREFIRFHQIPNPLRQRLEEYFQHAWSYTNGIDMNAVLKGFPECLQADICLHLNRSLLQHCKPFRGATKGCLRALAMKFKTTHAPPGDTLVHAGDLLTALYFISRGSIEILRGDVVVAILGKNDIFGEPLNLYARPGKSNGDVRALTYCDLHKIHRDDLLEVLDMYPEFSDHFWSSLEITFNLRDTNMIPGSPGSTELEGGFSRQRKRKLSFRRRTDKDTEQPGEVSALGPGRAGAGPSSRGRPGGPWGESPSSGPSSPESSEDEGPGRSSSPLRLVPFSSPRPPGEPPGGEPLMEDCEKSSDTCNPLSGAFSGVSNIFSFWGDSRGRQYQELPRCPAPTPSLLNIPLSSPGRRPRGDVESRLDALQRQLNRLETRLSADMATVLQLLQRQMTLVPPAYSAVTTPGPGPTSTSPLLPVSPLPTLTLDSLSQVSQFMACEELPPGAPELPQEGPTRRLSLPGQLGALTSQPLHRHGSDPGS

| SMILES | hERG current change (%, negative = inhibition) at 10uM [%] |
| --- | --- |
| Cc1nn(Cc2ccccc2)c2sc(C(=O)N3CCN(Cc4ccc5c(c4)OCO5)CC3)cc12.Cl | -5.87 |
| CCOc1cc(C=C(C(=O)OC)C(=O)OC)ccc1OCc1ccc([N+](=O)[O-])cc1 | 4.17 |
| CCOc1ccc(NC(=O)CSc2ccccc2N)cc1 | 2.68 |
| O=C1CC(c2cccc(Br)c2)c2cc3c(cc2N1)CCC3 (centres unmarked) | -3.47 |
| Cc1ccc(S(=O)(=O)NCCn2cnc([N+](=O)[O-])n2)cc1 | 26.7 |
| N#CC1(c2ccccc2)CCCN1C(=O)c1ccc(Br)cc1 (centres unmarked) | -8.79 |
| O=S(=O)(Nc1cccc(CO)c1)c1cccs1 | 14.7 |
| Cc1[nH]c2ccccc2c1/C=N/NC(=O)CNC(=O)COc1ccccc1 | 16.6 |
| CCc1sc(C(=O)Nc2ncccc2C)cc1C | 22.4 |
| O=S(=O)(c1ccc(S(=O)(=O)N2CCCC2)cc1)N1CCCCC1 | 4.73 |
| CC([NH2+][O-])C(C)(C)NO.[Cl-] (centres unmarked) | 25.3 |
| Cc1ccc(C2(C)NC(=O)N(CC(=O)Nc3ccccc3C(=O)NC3CCCC3)C2=O)cc1 (centres unmarked) | -32.8 |
| O=C(O)CC[N+](=O)[O-] | 15.3 |
| O=C(COc1ccccc1[N+](=O)[O-])N1CCN(S(=O)(=O)c2ccccc2)CC1 | -46.6 |
| Cc1cccc(-c2nc(CS(=O)CC(=O)N3CC(C)CC(C)C3)c(C)o2)c1 (centres unmarked) | -25.3 |
| Cn1ccnc1SCC(=O)Nc1ccc2nc(SCC(=O)NC3CC3)sc2c1 | 3.74 |
| CCC1(c2ccc(F)cc2)NC(=O)N(CC(=O)N2CCN(S(=O)(=O)c3ccc(Cl)cc3)CC2)C1=O (centres unmarked) | -6.7 |
| COc1ccc(-c2cccc(NS(=O)(=O)c3ccccc3[N+](=O)[O-])c2)nn1 | 14.8 |
| CC(=O)c1ccc(S(=O)(=O)NC2CCCCCCC2)cc1 | 12.7 |
| CC1Cc2nc(SCC(=O)NCC3CCCO3)n(Cc3ccccc3)c(=O)c2S1 (centres unmarked) | -21.7 |
| OC(CN1CCN(c2ccccc2)CC1)c1c[nH]c2ccccc12 (centres unmarked) | -31.4 |
| O=S(=O)(NCC1CCCO1)c1cccc(S(=O)(=O)N2CCCC2)c1 (centres unmarked) | -14 |

| SMILES | hERG current change (%, negative = inhibition) at 10uM [%] |
| --- | --- |
| O=C(C[n+]1ccc(/C=N/O)cc1)NCc1ccccc1.[Cl-] | -3.42 |
| COc1ccc(N2C(=O)c3ccccc3NC2c2cccnc2)cc1 (centres unmarked) | 16.3 |
| O=[N+]([O-])c1ccc(Oc2cccc3cccnc23)c(Cl)c1 | -15.4 |
| N#CCCN1CCCc2cc(N=Nc3ccc(C(F)(F)F)cc3)ccc21 | 13.4 |
| CCN(CC)Cc1c(O)ccc2c(=O)c(-c3ccccc3)coc12.Cl | -1.91 |
| CCCCCC(=O)Nc1ncc2c(n1)CC(c1cccs1)CC2=O (centres unmarked) | -30 |
| Cn1ccnc1C1CCCCN1Cc1nc(Cc2ccccc2F)no1 (centres unmarked) | -1.47 |
| COC(=O)c1ccccc1OCc1cccc(C)n1 | 12.6 |
| FC(F)(F)c1nnc2c(Sc3ccccn3)nc3ccccc3n12 | 15.5 |
| Cc1ccc(S(=O)(=O)NC(=O)c2cc(C)n(CCCn3ccnc3)c2C)cc1 | -2.28 |
| O=C(COc1ccc(S(=O)(=O)NC2CCCC2)cc1)N1CCCCC1 | 5.57 |
| O=c1cc(Nc2ccc3c(c2)OCCO3)[nH]c(=O)n1C1CCCCC1 | -2.29 |
| Cc1cccc(NC(=O)CN2C(=O)S/C(=C\C(=O)Nc3ccc(Cl)cc3)C2=O)c1 | 31.7 |
| Cc1cc(C)n(Cc2cnc(N3CCOCC3)s2)n1 | 14.9 |
| Cc1nn(C(=O)C2CC2)c(C)c1Sc1ccc(Cl)cc1 | 19.9 |
| O=C(N/N=C/c1ccc([N+](=O)[O-])cc1)c1ccc2nc[nH]c2c1 | 8.66 |
| O=C(NC1CCC(=O)N(CCSc2ccccc2)CC1)OCc1ccccc1 (centres unmarked) | -59.2 |
| COc1ccc(/C=N/NC(=O)c2ccccc2O)cc1Cn1cc([N+](=O)[O-])cn1 | 10.6 |
| NC(=O)COC(=O)c1cc(-c2ccco2)nc2ccccc12 | -9.66 |
| CCc1cccc(CC)c1N(COC)C(=O)Cn1c(CO)nc2ccccc21 | 2.52 |
| CC(C)Cn1c(CCCNC(=O)c2ccc(F)cc2)nc2ccccc21 | -50.3 |
| CN(C)CCN1C(=O)C(O)=C(C(=O)c2cc3ccccc3o2)C1c1cccc(Br)c1 (centres unmarked) | 18.8 |
